# Test results from PubChem BioAssay AID1963576 (National Center for Advancing Translational Sciences (NCATS), 2024).
# Screen size: about 46,000 compounds; about 60 (0.1%) were called active. Roughly 3% stayed inconclusive and do not appear here. Calls come from the whole dose curve; as a rule, active = well fitted inhibition curve with a large enough effect; inconclusive = small, poorly fitted or top-dose-only effect; inactive = no such curve, though single readings can be large or run the other way. The list shows a part of the results.
# Experiment: Primary qHTS assay for Inhibitors of ovarian cancer metastasis using an organotypic tumor microenvironment (TME) model.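 For activity change, negative = inhibition: plate controls were DMSO wells for no effect and tomatine positive control wells for full effect.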 Note: nearly all actives have a fitted effect of over 65% in size.
# Settings: SKOV3ip1-GFP adhesion/invasion on 3D omental model, fluorescence; series mostly up to 45.8 µM; activity change, negative = inhibition: at the top concentration
# In short: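 A 3D layer of primary human omental fibroblasts, mesothelial cells, fibronectin and collagen I, grown 48 hr, received SKOV3ip1-GFP cells in serum-free medium plus compounds at 0.36-46 umol/L. After 2 hr RT and 16 hr 37 C, fixed adherent GFP cells were counted; normalized to DMSO and tomatine.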
SMILES,outcome,"activity change, negative = inhibition"
CCCN(C(=O)Cn1ncc2c([nH]c3ccccc32)c1=O)c1ccc(F)cc1,inactive,
COc1ccc2c(c1)c(=O)c(S(=O)(=O)c1ccccc1)cn2CC(=O)Nc1ccc2c(c1)OCO2,,inactive: 8.17%
COc1cccc(-c2nc(SCC(=O)NCC3CCCO3)c(-c3ccc(Cl)cc3)[nH]2)c1 (stereo unspecified),inactive,
CN(C)CCNC(=O)C(=O)NCC(c1cccnc1)N1CCN(c2ccccc2)CC1 (stereo unspecified),,inactive: 1.69%
Cc1ccc(NC(=O)c2ccc(CNS(=O)(=O)c3ccc4c(c3)C(C)(C)C(=O)N4C)cc2)cc1,,inactive: -4.19%
CCOC(=O)C(C)(C)Oc1ccc(Cl)cc1,,inactive: -11.9%
COc1ccc(NC(=O)CN2C(=O)C(c3ccc(C)cc3)=NC23CCCCCC3)cc1Cl,,inactive: 7.86%
O=C(CSc1nc2ccsc2c(=O)n1Cc1ccccc1F)NCc1ccccc1Cl,,inactive: -0.76%
CC(=O)N1CCc2cc(S(=O)(=O)NC(Cc3ccccc3)C(=O)Nc3ccc(C)cc3C)ccc21 (stereo unspecified),,inactive: -7.14%
COc1ccc(N2CCN(C(=O)Cn3c(-c4cccs4)cc4ccccc43)CC2)cc1,,inactive: -14.9%
Cc1ccc(C)c(Cn2c(=O)n(-c3ccc(F)cc3)c(=O)c3sc4ccccc4c32)c1,,inactive: 1.84%
Clc1cccc(-n2ncc3c(Nc4ccc5c(c4)OCCO5)ncnc32)c1,,inactive: 9.3%
O=c1cc2nc(-c3ccccc3)nc(SCCOc3ccc(Cl)cc3)n2[nH]1,,inactive: 1.06%
Cc1nn2c(-c3ccco3)ccnc2c1-c1ccc(Cl)cc1,inactive,
COc1ccc(C(=O)Nc2ccc3oc(-c4cc(Cl)ccc4Cl)nc3c2)cc1Br,,inactive: 18.9%
CCOC(=O)c1cnc2c(C)cc(C)cc2c1Nc1ccccc1OCC,,inactive: 3.45%
O=C(Nc1cccc(Cl)c1Cl)c1cc(S(=O)(=O)N2CCCc3ccccc32)ccc1F,,inactive: 14.6%
CCC(=O)N1CCCc2cc(S(=O)(=O)N3CCC(C(=O)Nc4cccc(Cl)c4)CC3)ccc21,inactive,
Cc1ccc(C(=O)Nc2ccc3oc(-c4cc(Br)ccc4Cl)nc3c2)cc1,,inactive: -6.04%
CCc1ccc(NC(=O)CC2C(=O)N(c3ccc(OC)cc3)C(=O)N2Cc2cccs2)cc1 (stereo unspecified),inactive,
CCOC(=O)Cn1c(-c2cccs2)cc2cc(Cl)ccc21,,inactive: -4.26%
COc1ccc(CNC(=O)CSc2ncc3c(n2)-c2cc(Cl)ccc2N(C)S3(=O)=O)cc1,,inactive: 8.55%
COC(=O)c1c(NC(=O)/C=C/c2ccc(OC)cc2)sc2c1CCC2,,inactive: 42.8%
COc1ccc(CCNC(=O)c2ccc3c(c2)N(Cc2cccc(Cl)c2)C(=O)c2ccccc2S3=O)cc1OC (stereo unspecified),,inactive: -8.45%
O=C(Cn1c(=O)n(-c2ccccc2)c(=O)c2ccc(C(=O)NCc3ccc4c(c3)OCO4)cc21)Nc1ccc(F)c(Cl)c1,inactive,
CN(CCCNC(=O)c1cc2c(=O)n(C)c3ccccc3c2s1)Cc1ccccc1,,inactive: -0.0841%
